# The RNAGym collection of RNA variant scans (doi:10.1093/nar/gkz1192)
# Read counts are not given, so values of variants with three or more changes are uncertain.
# B1: CPEB3 Ribozyme (parent)
# chain: UAACAGGGGGCCACAGCAGAAGCGUUCACGUCGCAGCCCCUGUCAGAUUCUGGUGAAUCUGCGAAUUCUGCUGUAUAUCUC
# Variants of: B1
# Experiment: self-cleavage, relative activity (ratio to wild type); higher = more cleavage; in vitro, sequencing
# Method in brief: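 Barcoded CPEB3 ribozyme mutants, produced by rounds of error-prone PCR, self-cleaved while being transcribed with T7 RNA polymerase for 5 hours at 37°C and during a subsequent 15 min DNase I step before EDTA was added. Sequencing of template-switched cDNA on Illumina gave cleaved and total reads, and DNA sequencing assigned barcodes to variants. Each variant's relative activity is its cleaved/total read fraction divided by the unmutated ribozyme's fraction, averaged across three batches. A variant needed a minimum of 5 reads.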
row,Variant,self-cleavage
1,UAACAGGGGGCCACAGCAGAAGCGCUCACGUCGCAGCCCCAGUCAGAUUCUGGUGGAUCUGCGUAUUCUGCUGUAUAUCUC,0.07
2,UAACAGGGGGCCACAGCAGAAGCGCUCACGUCGCAGCCCCAGUCAGAUUAUGGUGAAUCUGCGAAUUCUGCUGUAUAUCUC,0.28
3,UAACAGGGGGCCACAGCAGAAGCGCUCACGUCGCAGCCCCAGUCAGAUUCUGGUCAAUCUGCGAAUUCUGCUGUAUAUCUC,0.17
4,UAACAGGGGGCCACAGCAGAAGCGCUCACGUCGCAGCCCCAGUCAGAUUCUGGUGAAUCUGCGAAUUCUGCUUUGUAUCCC,0.04
5,UAACAGGGGGCCACAGCAGAAGCGCUCACGUCGCAGCCCCAGCCAGAUUCUGGUGAAUCUGCGAAUUCCGCUGUAUAUCUC,0.06
6,UAACAGGGGGCCACAGCAGAAGCGCUCACGUCGCAGCCCCAGUCAGACUCAGGUGAAUCUGCGAAUCCUGCAGUAUAUCUC,0.04
7,UAACAGGGGGCCACAGCAGAAGCGCUCACGUCGCAGCCCCAGUCAGAUUCUGGUGAAUCUGCGAAUUCUGCGGUAAAUCUC,0.07
8,UAACAGGGGGCCACAGCAGAAGCGCUCACGUCGCAGCCCCAGUCAGAUUCUGGUGAAUCUGCGAAUUCUGCUGUAAAUCUC,0.11
9,UAACAGGGGGCCACAGCAGAAGCGCUCACGUCGCAGCCCCAGUCAGAUUCUGGUGAAUCUGCGAAUUCUGCUGUAUAUCCC,0.2
10,UAACAGGGGGCCACAGCAGAAGCGCUCACGUCGCAGCCCCCGUCAGGUUCAGGUGAAUCUGCGAAUUCUGCUGUAUAUCUC,0.51
11,UAACAGGGGGCCACAGCAGAAGCGCUCACGUCGCAGCCCCCGUCAGAUUCUGGUGAAUCUGCGAAUUCUGCUGUAUCUCUC,0.05
12,UAACAGGGGGCCACAGCAGAAGCGCUCACGUCGCAGCCCCCGUCAGAUUCUGGUGAAUCUGUGGAUUCUGCUGUAUAUCUC,0.49
13,UAACAGGGGGCCACAGCAGAAGCGCUCACGUCGCAGCCCCCGUCAGAUUCUGAUGAAUCUGCGAAUUCUGCUGUAUAUCUC,0.25
14,UAACAGGGGGCCACAGCAGAAGCGCUCACGUCGCAGCCCCCGUCAGAUUCUGGUGAAUCUGCGAACUCUGCUGUAUACCUC,0.31
15,UAACAGGGGGCCACAGCAGAAGCGCUCACGUCGCAGCCCCCGUCAGAUUCUGGUGAAUCUGCGAAUUCCGCUGUAUAUCUC,0.16
16,UAACAGGGGGCCACAGCAGAAGCGCUCACGUCGCAGCCCCCGUCAGAUUCUGGUGAAUCUGCGAAUUCCGCUGUAUUUCUC,0.08
17,UAACAGGGGGCCACAGCAGAAGCGCUCACGUCGCAGCCCCCGUCAGAUUCUGGUGAAUCUGCGAAUUCUGCUGUAAAUCUC,0.44

row,Variant,self-cleavage
1,UAACAGGGGGCCACAGCAGAAGCGCUCACGUCGCAGCCCCGGUCAGAUUCUGGUGAAUCUGCGAAUUCUGCUGUAUAACUC,0.3
2,UAACAGGGGGCCACAGCAGAAGCGCUCACGUCGCAGCCCCUGACAGAUUCUGGUGAAUCUGCGUAUUCUGCUGUAUAUCUC,0.11
3,UAACAGGGGGCCACAGCAGAAGCGCUCACGUCGCAGCCCCUGACAGAUUCUGGUGAAUCUGCGAAUUCUGCUGUACAUCUC,0.26
4,UAACAGGGGGCCACAGCAGAAGCGCUCACGUCGCAGCCCCUGCCAGAUUCUGGUGGAUCUGCGAAUACUGCUGUAUAUCUC,0.09
5,UAACAGGGGGCCACAGCAGAAGCGCUCACGUCGCAGCCCCUGCCAGAUUCUGGUGAGUCUGCGAAUUCUGCUGUAUAUCUC,0.23
6,UAACAGGGGGCCACAGCAGAAGCGCUCACGUCGCAGCCCCUGCCAGAUUCUGGUGAAUCUGUGUAUUCUGCUGUAUAUCUC,0.28
7,UAACAGGGGGCCACAGCAGAAGCGCUCACGUCGCAGCCCCUGCCAGAUUCUAGCGAAUCUGCGAAUUCUGCUGUUUAUCUC,0.22
8,UAACAGGGGGCCACAGCAGAAGCGCUCACGUCGCAGCCCCUGCCAGAUUCUGGUGAAUCUCCGAAUUCUGCCGUAUAUCUC,0.06
9,UAACAGGGGGCCACAGCAGAAGCGCUCACGUCGCAGCCCCUGCCAGAAUCUGGUGAAUCUGCGAAUUCUGCUGUAUAUCUC,0.19
10,UAACAGGGGGCCACAGCAGAAGCGCUCACGUCGCAGCCCCUGCCAGAUCCUGGUGAAUCUGCGAAUUCUGCUGUAUAUCUC,0.33
11,UAACAGGGGGCCACAGCAGAAGCGCUCACGUCGCAGCCCCUGCCAGAUCCUGGUGAAUCUGCGAACUCAGCUGUAUAUCUC,0.06
12,UAACAGGGGGCCACAGCAGAAGCGCUCACGUCGCAGCCCCUGCCAGAUUCCGGUGAAUCUGCGAACUCUGCCGUAUAUCUC,0.13
13,UAACAGGGGGCCACAGCAGAAGCGCUCACGUCGCAGCCCCUGCCAGAUUCGGGUGGAUCUGCGAAUUCUGCUGUAUAUCUC,0.35
14,UAACAGGGGGCCACAGCAGAAGCGCUCACGUCGCAGCCCCUGCCAGAUUCUGGUGAAUCUGCGAAAUCUGCUGUUUAUCUC,0.14
15,UAACAGGGGGCCACAGCAGAAGCGCUCACGUCGCAGCCCCUGCCAGAUUCUGGUGAAUCUGCGAAACCUGCUGUAUAUCUC,0.34
16,UAACAGGGGGCCACAGCAGAAGCGCUCACGUCGCAGCCCCUGGCAGAUUCUGGUGAAUCUGCGAAUUCUGCUGUAUACCCC,0.21
17,UAACAGGGGGCCACAGCAGAAGCGCUCACGUCGCAGCCCCUGUCAGAACAUGGUGAAUCUGCGAAUUCUGCUGUAUGUCUC,0.07
